# Source: the supplement of paper PMC5895741
# B1: MS2 coat protein; the commonest letter at each place (parent)
# chain: MASNFTQFVLVDNGGTGDVTVAPSNFANGVAEWISSNSRSQAYKVTCSVRQSSAQNRKYTIKVEVPKVATQTVGGVELPVAAWRSYLNMELTIPIFATNSDCELIVKAMQGLLKDGNPIPSAIAANSGIY
# Variants of: B1
# Assay: apparent fitness score (VLP assembly selection enrichment vs plasmid library) (log10 ratio); higher = better expression / assembly into well-formed VLPs
# 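Note: counts from Illumina MiSeq reads, cDNA of packaged RNA versus plasmid DNA taken before selection, each replicate independent from library construction onward, expression induced with 0.1% arabinose.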
row,Variant,apparent fitness score (log10)
1,V76S,-0.931
2,V76T,-1.03
3,V76W,-0.862
4,V76Y,-1.41
5,E77A,0.482
6,E77C,0.708
7,E77D,0.278
8,E77F,0.138
9,E77G,0.525
10,E77H,0.349
11,E77I,0.477
12,E77K,-0.19
13,E77L,0.552
14,E77M,0.442
15,E77N,0.604
16,E77P,0.492
17,E77Q,0.551
18,E77R,-0.351
19,E77S,0.406
20,E77T,0.279
21,E77V,0.312
22,E77W,-0.0444
23,E77Y,0.0581
24,L78A,< -4

row,Variant,apparent fitness score (log10)
1,L78C,-0.915
2,L78E,< -4
3,L78F,0.214
4,L78G,-0.65
5,L78H,< -4
6,L78I,-0.263
7,L78K,-0.744
8,L78M,-0.765
9,L78N,-0.123
10,L78P,-0.382
11,L78Q,< -4
12,L78R,-0.687
13,L78S,< -4
14,L78T,< -4
15,L78V,-1.18
16,L78W,< -4
17,L78Y,-0.164
18,P79A,< -4
19,P79C,< -4
20,P79D,< -4
21,P79F,< -4
22,P79G,< -4
23,P79H,-0.706
24,P79I,< -4

row,Variant,apparent fitness score (log10)
1,P79K,< -4
2,P79L,0.173
3,P79M,< -4
4,P79N,-0.388
5,P79R,< -4
6,P79S,-0.0825
7,P79T,0.214
8,P79V,< -4
9,P79W,< -4
10,P79Y,-0.382
11,V80A,0.0418
12,V80C,-0.0295
13,V80E,< -4
14,V80F,< -4
15,V80G,-0.331
16,V80H,0.21
17,V80I,-0.112
18,V80K,< -4
19,V80L,< -4
20,V80M,-0.0906
21,V80N,-0.413
22,V80P,< -4
23,V80Q,-0.221
24,V80R,-0.698

row,Variant,apparent fitness score (log10)
1,V80S,-0.397
2,V80T,1.1
3,V80W,< -4
4,V80Y,-0.529
5,A81C,< -4
6,A81D,< -4
7,A81E,< -4
8,A81F,< -4
9,A81G,-2.04
10,A81H,< -4
11,A81I,< -4
12,A81K,< -4
13,A81L,< -4
14,A81M,-0.994
15,A81N,-0.292
16,A81P,-0.931
17,A81Q,< -4
18,A81R,-1.31
19,A81S,0.516
20,A81T,0.0977
21,A81V,< -4
22,A81W,-0.568
23,A81Y,-1.52
24,A82C,-1.3

row,Variant,apparent fitness score (log10)
1,A82D,< -4
2,A82E,-0.693
3,A82F,< -4
4,A82G,-1.45
5,A82H,-0.775
6,A82I,< -4
7,A82K,< -4
8,A82L,-1.46
9,A82M,-1.4
10,A82N,< -4
11,A82P,-0.482
12,A82Q,-1.6
13,A82R,-1.74
14,A82S,-1.11
15,A82T,-0.853
16,A82V,< -4
17,A82W,-1.2
18,A82Y,< -4
19,W83A,< -4
20,W83C,-0.474
21,W83D,< -4
22,W83E,-1.8
23,W83F,-0.713
24,W83G,-1.09

row,Variant,apparent fitness score (log10)
1,W83H,< -4
2,W83I,-1.28
3,W83K,-1.82
4,W83L,-1.55
5,W83M,< -4
6,W83N,< -4
7,W83P,< -4
8,W83Q,< -4
9,W83R,-0.405
10,W83S,-1.23
11,W83T,-1.26
12,W83V,-1.46
13,W83Y,< -4
14,R84A,-1.17
15,R84C,0.271
16,R84D,-1.05
17,R84E,-1.45
18,R84F,-1.71
19,R84G,-0.526
20,R84H,-0.428
21,R84I,< -4
22,R84K,0.44
23,R84L,< -4
24,R84M,< -4

row,Variant,apparent fitness score (log10)
1,R84N,< -4
2,R84P,-0.999
3,R84Q,-1.28
4,R84S,-1.78
5,R84T,-1.28
6,R84V,-1.1
7,R84W,-0.653
8,R84Y,< -4
9,S85A,0.6
10,S85C,0.0724
11,S85D,-1.3
12,S85E,-1.07
13,S85F,-0.692
14,S85G,0.00816
15,S85H,< -4
16,S85I,-1.11
17,S85K,< -4
18,S85L,-0.72
19,S85M,-0.676
20,S85N,-0.999
21,S85P,-0.594
22,S85Q,< -4
23,S85R,-1.47
24,S85T,-0.823

row,Variant,apparent fitness score (log10)
1,S85V,-0.689
2,S85W,-0.999
3,S85Y,-0.999
4,Y86A,-1.26
5,Y86C,-0.812
6,Y86D,< -4
7,Y86E,-1.47
8,Y86F,0.59
9,Y86G,-1.19
10,Y86H,1.06
11,Y86I,-1.03
12,Y86K,-0.215
13,Y86L,-0.769
14,Y86M,-0.34
15,Y86N,-0.798
16,Y86P,-1.09
17,Y86Q,< -4
18,Y86R,0.469
19,Y86S,-1.13
20,Y86T,-1.07
21,Y86V,-0.502
22,Y86W,-0.722
23,L87A,-0.907
24,L87C,0.422

row,Variant,apparent fitness score (log10)
1,L87D,-0.597
2,L87E,-0.728
3,L87F,-0.735
4,L87G,-0.778
5,L87H,< -4
6,L87I,< -4
7,L87K,-1.43
8,L87M,-1.17
9,L87N,< -4
10,L87P,-1.3
11,L87Q,< -4
12,L87R,-1.24
13,L87S,-0.746
14,L87T,0.186
15,L87V,-0.403
16,L87W,0.528
17,L87Y,< -4
18,N88A,0.307
19,N88C,0.803
20,N88D,0.291
21,N88E,-0.634
22,N88F,-0.292
23,N88G,0.16
24,N88I,0.818

row,Variant,apparent fitness score (log10)
1,N88K,0.921
2,N88L,0.636
3,N88M,0.392
4,N88P,-0.721
5,N88Q,0.233
6,N88R,0.86
7,N88S,0.672
8,N88T,0.355
9,N88V,0.654
10,N88W,0.643
11,N88Y,0.317
12,M89A,-1.13
13,M89C,-0.673
14,M89D,-1.02
15,M89E,-0.941
16,M89F,0.276
17,M89G,-1.15
18,M89H,-0.515
19,M89I,0.633
20,M89K,-0.57
21,M89L,0.7
22,M89N,-1.42
23,M89P,-1.21
24,M89Q,-0.775

row,Variant,apparent fitness score (log10)
1,M89R,-1.08
2,M89S,-0.929
3,M89T,0.0383
4,M89V,0.652
5,M89W,-0.629
6,M89Y,-0.683
7,E90A,1.09
8,E90C,0.8
9,E90D,0.469
10,E90F,0.751
11,E90G,0.866
12,E90H,0.587
13,E90I,0.838
14,E90K,0.724
15,E90L,0.546
16,E90M,0.792
17,E90N,0.836
18,E90P,-1.17
19,E90Q,0.782
20,E90R,0.823
21,E90S,0.896
22,E90T,0.96
23,E90V,1.01
24,E90W,0.556

row,Variant,apparent fitness score (log10)
1,E90Y,0.359
2,L91A,-1.08
3,L91C,-0.572
4,L91D,-1.93
5,L91E,-0.771
6,L91F,-0.798
7,L91G,-0.314
8,L91H,-0.641
9,L91I,0.104
10,L91K,< -4
11,L91M,< -4
12,L91N,< -4
13,L91P,-1.11
14,L91Q,-1.2
15,L91R,-1.93
16,L91S,-0.981
17,L91T,-0.979
18,L91V,0.175
19,L91W,-0.138
20,L91Y,-0.614
21,T92A,0.159
22,T92C,-1.41
23,T92D,-0.11
24,T92E,-1.12

row,Variant,apparent fitness score (log10)
1,T92F,0.475
2,T92G,-0.957
3,T92H,0.0362
4,T92I,0.664
5,T92K,1.01
6,T92L,0.253
7,T92M,0.368
8,T92N,0.369
9,T92P,< -4
10,T92Q,0.52
11,T92R,0.157
12,T92S,0.596
13,T92V,0.395
14,T92W,0.361
15,T92Y,0.238
16,I93A,-1.52
17,I93C,-1.04
18,I93D,-0.936
19,I93E,-1.72
20,I93F,-0.883
21,I93G,-1.2
22,I93H,-0.626
23,I93K,-1.11
24,I93L,-1.17

row,Variant,apparent fitness score (log10)
1,I93M,-0.698
2,I93N,-0.66
3,I93P,-0.721
4,I93Q,< -4
5,I93R,-1.12
6,I93S,-0.728
7,I93T,-0.096
8,I93V,0.457
9,I93W,-0.946
10,I93Y,< -4
11,P94A,-0.655
12,P94C,-1.5
13,P94D,< -4
14,P94E,-2.13
15,P94F,-1.05
16,P94G,-1.31
17,P94H,< -4
18,P94I,-1.27
19,P94K,-0.354
20,P94L,-1.06
21,P94M,-1.24
22,P94N,-1.09
